In all, about 33,000 sequences were measured (“E-score (-0.5 to 0.5)”: median about -0.013, highest 2% from about 0.3 on). The list shows a part of the results.
molecular target: T1, Msn1 (UniProt P22148); experiment: PBM E-score (8-mer binding enrichment) (E-score (-0.5 to 0.5)); higher = stronger / more preferred TF binding; most listed sequences are background and not binding sites; conditions: protein concentration: 200 nM; construct: GST-full length
T1 sequence: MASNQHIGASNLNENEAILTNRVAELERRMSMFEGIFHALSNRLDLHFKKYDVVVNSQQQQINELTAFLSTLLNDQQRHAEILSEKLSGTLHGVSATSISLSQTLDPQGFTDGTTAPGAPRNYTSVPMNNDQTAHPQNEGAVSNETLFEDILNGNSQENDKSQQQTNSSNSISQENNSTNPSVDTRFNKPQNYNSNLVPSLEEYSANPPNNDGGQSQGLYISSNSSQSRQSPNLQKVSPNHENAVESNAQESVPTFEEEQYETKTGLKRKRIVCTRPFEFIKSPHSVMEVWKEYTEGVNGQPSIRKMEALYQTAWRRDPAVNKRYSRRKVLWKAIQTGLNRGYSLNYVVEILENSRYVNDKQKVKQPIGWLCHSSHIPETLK
How it was run: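 Detection of bound protein used fluorescent anti-GST, with scans normalised by masliner. The proteins were GST-tagged yeast transcription factors applied at about 100-200 nM to universal all-10-mer Agilent arrays made double-stranded by primer extension. Each ungapped eight-base word, pooled with its reverse complement, was scored with an E-score from the Universal PBM Analysis Suite.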

First: TGCTCACA
Second: AGTGTTTC
The “PBM E-score” value of the first is lower: -0.0848 for the first, -0.0607 for the second.

Going from AGTTGAAC to CGGTCACG, the “PBM E-score” value falls from 0.00997 to -0.162.

Compared with GCCGGCTA, ACGGTCCC is lower in “PBM E-score” value: -0.0401 for the first, -0.269 for the second.

First: AGCAAACC
Second: AGAGTCGA
The “PBM E-score” value of the first is higher: -0.0325 for the first, -0.219 for the second.

Compared with CTGACGAA, GCACTGCA is lower in “PBM E-score” value: 0.115 for the first, -0.163 for the second.

Going from GACGCTAA to ATGGGATC, the “PBM E-score” value rises from -0.171 to -0.0823.

Going from CCCCACCA to ATCTAGTC, the “PBM E-score” value rises from -0.227 to 0.00018.

Compared with CGTCCTCC, AGCTAAAC is lower in “PBM E-score” value: -0.0931 for the first, -0.113 for the second.

Going from CGTTATGA to AAAACTGT, the “PBM E-score” value rises from -0.0438 to 0.126.

First: AAACTTAC
Second: CTCGATCA
The “PBM E-score” value of the first is higher: 0.0625 for the first, -0.0281 for the second.

Going from ACGCGAAA to AGTCACTC, the “PBM E-score” value falls from 0.0436 to -0.0221.

Going from AGTTGATA to GACTCACA, the “PBM E-score” value falls from 0.27 to -0.0298.

First: CTGAACAG
Second: GCGCTGCA
The “PBM E-score” value of the first is lower: -0.135 for the first, -0.0903 for the second.

Going from GTCCCGCA to CTGGAACA, the “PBM E-score” value falls from 0.151 to 0.117.

First: CCCGCTGC
Second: CGCGCTGC
The “PBM E-score” value of the first is higher: -0.0392 for the first, -0.172 for the second.

Going from GGTATTCA to CACCTGTC, the “PBM E-score” value rises from 0.0386 to 0.0895.

Compared with AGCACTCC, ACAGGGCA is higher in “PBM E-score” value: -0.0857 for the first, 0.00913 for the second.

Compared with GTCTTATA, CAGATAAG is lower in “PBM E-score” value: 0.174 for the first, 0.102 for the second.

First: AGGTCAGG
Second: ATCTGGAC
The “PBM E-score” value of the first is lower: -0.33 for the first, 0.215 for the second.

Compared with ATTTTAGC, GGATTTCA is lower in “PBM E-score” value: 0.193 for the first, 0.0863 for the second.

Compared with CGCGTGTC, TATGGGCA is lower in “PBM E-score” value: 0.344 for the first, 0.0785 for the second.

Going from TGTTTAAA to GCGGCCCC, the “PBM E-score” value falls from 0.0999 to -0.311.

Compared with ACCTGGTA, ATCATTAG is higher in “PBM E-score” value: -0.0804 for the first, 0.00045 for the second.

Compared with GAACAAGC, GAAAAGCC is lower in “PBM E-score” value: 0.139 for the first, -0.132 for the second.

First: ATCATACA
Second: ATTAGGTG
The “PBM E-score” value of the first is higher: 0.122 for the first, 0.0556 for the second.

Compared with ACAGCTAA, GCGGAAGA is higher in “PBM E-score” value: -0.043 for the first, -0.0143 for the second.

Compared with CGCTCATC, CTTGGTCA is higher in “PBM E-score” value: -0.102 for the first, 0.0262 for the second.

Compared with GCACGCTA, AGGGCTAC is higher in “PBM E-score” value: -0.292 for the first, -0.18 for the second.

Going from AGCAGCTC to ATGGGTCC, the “PBM E-score” value falls from -0.131 to -0.173.

Going from CAGATCGC to ATATCCCC, the “PBM E-score” value falls from -0.112 to -0.14.

First: GGGTCACC
Second: AGCGGGAG
The “PBM E-score” value of the first is lower: -0.297 for the first, -0.266 for the second.

First: CCACATCA
Second: ACTCTGTG
The “PBM E-score” value of the first is lower: -0.0399 for the first, 0.0369 for the second.

First: ACCCCTGA
Second: ATGGATTC
The “PBM E-score” value of the first is lower: -0.126 for the first, -0.00162 for the second.

First: AACCCCGG
Second: AATTGAGT
The “PBM E-score” value of the first is lower: -0.238 for the first, 0.0818 for the second.

Going from CGGTGCCC to CTGTAACA, the “PBM E-score” value rises from -0.224 to -0.0488.

Going from AAAAAAGT to AAGGTCAT, the “PBM E-score” value falls from 0.235 to 0.0383.

First: ACGTAATC
Second: CTTCCGTA
The “PBM E-score” value of the first is lower: -0.0595 for the first, 0.108 for the second.

Compared with ACTATCGG, CAATGTCA is higher in “PBM E-score” value: 0.106 for the first, 0.262 for the second.

First: TCACGGCA
Second: CCGAGGCG
The “PBM E-score” value of the first is higher: 0.0499 for the first, 0.0021 for the second.

Compared with TGGACTAA, ACACACGT is lower in “PBM E-score” value: 0.183 for the first, -0.00299 for the second.

First: AGCAAAAA
Second: CTTAGTTA
The “PBM E-score” value of the first is higher: 0.19 for the first, 0.0636 for the second.

Going from ACAGTCGG to GGATGACA, the “PBM E-score” value rises from 0.0848 to 0.272.

Going from ATCCAAGG to AGTCCTAA, the “PBM E-score” value rises from -0.0486 to 0.297.

Reference: the supplement of paper PMC3334620
